Laboratory results from a collection of fitness landscapes (doi:10.1126/science.1257360).
The list shows a part of the results.

B1: PhoQ; a variant is named by its letters at X, in order, P23837 (parent)
chain: MKKLLRLFFPLSLRVRFLLATAAVVLVLSLAYGMVALIGYSVSFDKTTFRLLRGESNLFYTLAKWENNKLHVELPENIDKQSPTMTLIYDENGQLLWAQRDVPWLMKMIQPDWLKSNGFHEIEADVNDTSLLLSGDHSIQQQLQEVREDDDDAEMTHSVAVNVYPATSRMPKLTIVVVDTIPVELKSSYMVWSWFIYVLSANLLLVIPLLWVAAWWSLRPIEALAKEVRELEEHNRELLNPATTRELTSLVRNLNRLLKSERERYDKYRTTLTDLTHSLKTPLXXLQXXLRSLRSEKMSVSDAEPVMLEQISRISQQIGYYLHRASMRGGTLLSRELHPVAPLLDNLTSALNKVYQRKGVNISLDISPEISFVGEQNDFVEVMGNVLDNACKYCLEFVEISARQTDEHLYIVVEDDGPGIPLSKREVIFDRGQRVDTLRPGQGVGLAVAREITEQYEGKIVAGESMLGGARMEVIFGRQHSAPKDE

Variants of: B1
Assay: enrichment ratio after two sorts for PhoP signalling (ratio (wild type AVST 3.29)); higher = more functional
Details: with PhoP (E. coli)

Variant	enrichment ratio
FMCM	0.797
KKSI	≤ 0.25
FLLC	≤ 0.25
QWPM	≤ 0.25
ASFA	≤ 0.25
KRLD	≤ 0.25
HTSW	≤ 0.25
WWTT	≤ 0.25
RPVK	≤ 0.25
PSIY	≤ 0.25
SYPD	≤ 0.25
FPFL	≤ 0.25
QIFW	≤ 0.25
SFES	≤ 0.25
SADE	≤ 0.25
YFAP	≤ 0.25
LMMF	≤ 0.25
PRYD	≤ 0.25
LAME	≤ 0.25
HRSK	≤ 0.25
QKIA	≤ 0.25
SMES	≤ 0.25
GIIG	3.38
RDDS	≤ 0.25

Variant	enrichment ratio
PWRF	≤ 0.25
FWLK	≤ 0.25
FAHL	≤ 0.25
RGGD	≤ 0.25
IPPM	≤ 0.25
TTHF	11.8
PEYN	≤ 0.25
HWDC	≤ 0.25
FDLW	≤ 0.25
FPQM	≤ 0.25
VWDM	≤ 0.25
VKTM	≤ 0.25
AYPQ	≤ 0.25
HGTA	≤ 0.25
VLLI	0.611
TMQG	11.9
FPDY	≤ 0.25
CYCR	≤ 0.25
SLWT	≤ 0.25
LRLW	0.358
FMGD	≤ 0.25
SLWA	≤ 0.25
ASGT	8.73
EAVG	≤ 0.25

Variant	enrichment ratio
LWAA	≤ 0.25
AVFI	≤ 0.25
AGLM	6.12
TIDG	≤ 0.25
EHWA	≤ 0.25
TLMP	≤ 0.25
RMVY	≤ 0.25
IIKH	≤ 0.25
SAQS	≤ 0.25
DMTN	≤ 0.25
TIME	≤ 0.25
HQHC	≤ 0.25
YNWM	≤ 0.25
SHKS	≤ 0.25
IFMP	≤ 0.25
YPDN	≤ 0.25
WAKF	≤ 0.25
SCWL	≤ 0.25
PRIF	≤ 0.25
AETG	8.19
TGVV	0.277
QNCP	≤ 0.25
VQHT	≤ 0.25
MCLC	1.65

Variant	enrichment ratio
SMFK	≤ 0.25
VDIY	≤ 0.25
IIHR	≤ 0.25
TCKP	≤ 0.25
EYCL	≤ 0.25
HKVH	≤ 0.25
YGSI	≤ 0.25
WMPR	≤ 0.25
MNWD	1.62
YMRD	0.298
YDMH	≤ 0.25
MWSP	≤ 0.25
YTGD	≤ 0.25
YKLL	≤ 0.25
VMAL	≤ 0.25
ALFV	≤ 0.25
DAHQ	≤ 0.25
FTDC	≤ 0.25
ENDI	≤ 0.25
IHRW	≤ 0.25
RTIM	≤ 0.25
WNWI	≤ 0.25
HEAV	≤ 0.25
KVAR	≤ 0.25

Variant	enrichment ratio
FDMF	≤ 0.25
HWSE	1.11
TTDG	≤ 0.25
GDRS	≤ 0.25
DNPQ	≤ 0.25
PKTF	≤ 0.25
PLDH	≤ 0.25
NHFY	≤ 0.25
FYWS	≤ 0.25
QPPI	≤ 0.25
RVSE	≤ 0.25
GQGW	≤ 0.25
YWPT	≤ 0.25
GATN	≤ 0.25
TNFQ	≤ 0.25
IQRF	≤ 0.25
MVSR	≤ 0.25
TSWQ	6.69
FPYH	≤ 0.25
AAQW	≤ 0.25
SISF	10.7
VATW	≤ 0.25
YGSY	≤ 0.25
AECS	39.5

Variant	enrichment ratio
HHCG	≤ 0.25
LRSS	≤ 0.25
KAIA	≤ 0.25
TAPS	≤ 0.25
WPHS	≤ 0.25
EMYR	≤ 0.25
PGEW	≤ 0.25
WYMF	≤ 0.25
SFHH	≤ 0.25
PQIG	≤ 0.25
QQAL	≤ 0.25
WDMP	≤ 0.25
KVSL	≤ 0.25
PLTH	≤ 0.25
EGVH	≤ 0.25
NKYM	≤ 0.25
VGAD	≤ 0.25
AKVE	≤ 0.25
NRIG	≤ 0.25
AAWL	≤ 0.25
EFAL	≤ 0.25
MTKS	≤ 0.25
YCHV	≤ 0.25
AFHE	≤ 0.25

Variant	enrichment ratio
FQEG	≤ 0.25
DYVD	≤ 0.25
GFTG	≤ 0.25
NGTV	≤ 0.25
ASRI	≤ 0.25
DKYT	≤ 0.25
EEHL	≤ 0.25
KDAY	≤ 0.25
LWSD	≤ 0.25
GYSN	0.824
LWCV	≤ 0.25
MTPA	≤ 0.25
LYYE	≤ 0.25
ACSW	8.92
WGLH	≤ 0.25
INSG	≤ 0.25
VFYI	≤ 0.25
YQWQ	≤ 0.25
QWVS	≤ 0.25
ARCR	≤ 0.25
WNHR	≤ 0.25
LNLW	≤ 0.25
IQVD	≤ 0.25
YCTA	0.338

Variant	enrichment ratio
KKGR	≤ 0.25
IGNH	≤ 0.25
NLMH	≤ 0.25
KKVW	≤ 0.25
IVWS	≤ 0.25
NMRM	≤ 0.25
KVCH	≤ 0.25
HEPK	≤ 0.25
SPEM	≤ 0.25
DIRK	≤ 0.25
SPVS	≤ 0.25
HCQR	≤ 0.25
QNNQ	≤ 0.25
IKCS	≤ 0.25
LFRT	≤ 0.25
HLWV	≤ 0.25
DGKR	≤ 0.25
EIRV	≤ 0.25
DAPP	≤ 0.25
AGSI	7.64
YPWV	≤ 0.25
HQKY	≤ 0.25
HENT	≤ 0.25
RGEH	≤ 0.25

Variant	enrichment ratio
WNAP	≤ 0.25
NHTT	≤ 0.25
KACD	≤ 0.25
KDFF	≤ 0.25
DSAF	≤ 0.25
NFMY	≤ 0.25
RWNP	≤ 0.25
DTKP	≤ 0.25
TVNT	8.93
ESKF	≤ 0.25
DGKS	≤ 0.25
QCRK	≤ 0.25
ERFK	≤ 0.25
NKLV	≤ 0.25
YIMR	≤ 0.25
TDFV	≤ 0.25
HVLC	≤ 0.25
WAYI	≤ 0.25
THPL	≤ 0.25
QMYR	≤ 0.25
MMMW	≤ 0.25
YALI	13.3
RPSI	≤ 0.25
FAMN	≤ 0.25

Variant	enrichment ratio
RCVQ	≤ 0.25
WFGA	≤ 0.25
EMWW	≤ 0.25
FPWG	≤ 0.25
TTMQ	30.4
STWH	0.743
RQWP	≤ 0.25
TKKG	≤ 0.25
CISS	≤ 0.25
TENY	11.3
QNDR	≤ 0.25
LHQC	≤ 0.25
ITFV	≤ 0.25
KNIN	≤ 0.25
WDQY	≤ 0.25
PSHT	≤ 0.25
TWWV	≤ 0.25
PLWH	≤ 0.25
PAIT	≤ 0.25
WSWT	≤ 0.25
DPNS	≤ 0.25
MDII	≤ 0.25
KLCM	≤ 0.25
SMYC	≤ 0.25

Variant	enrichment ratio
WPAE	≤ 0.25
KLKR	≤ 0.25
EMSC	≤ 0.25
IPYA	≤ 0.25
ARHA	≤ 0.25
TDHG	≤ 0.25
IFCS	≤ 0.25
ATCT	7.03
MCGY	≤ 0.25
YHQT	≤ 0.25
DTTY	≤ 0.25
YCPQ	≤ 0.25
EGCI	≤ 0.25
NFKM	≤ 0.25
TENV	1.73
AHGN	≤ 0.25
HGRA	≤ 0.25
YYMM	≤ 0.25
ESSM	≤ 0.25
YFVR	≤ 0.25
RQVE	≤ 0.25
KLGF	≤ 0.25
HNRG	≤ 0.25
PSSR	≤ 0.25

Variant	enrichment ratio
QGGG	17.7
TRVW	≤ 0.25
ASPK	≤ 0.25
LRMY	≤ 0.25
TMKG	≤ 0.25
TEEV	≤ 0.25
GAIR	≤ 0.25
GCAG	2.41
VCSP	≤ 0.25
TEIP	≤ 0.25
DMWA	≤ 0.25
IEHA	≤ 0.25
YIMN	0.646
LTVS	≤ 0.25
HYNF	≤ 0.25
ACCE	≤ 0.25
PVLH	≤ 0.25
TNNH	0.972
RTSK	≤ 0.25
DLAC	≤ 0.25
HAKV	≤ 0.25
VTGW	≤ 0.25
RFWK	≤ 0.25
GKYM	≤ 0.25

Variant	enrichment ratio
TEPD	≤ 0.25
SCHN	≤ 0.25
DRQD	≤ 0.25
YDCT	≤ 0.25
QNHN	≤ 0.25
HMTP	≤ 0.25
KRYC	≤ 0.25
SVVA	1.32
VATD	≤ 0.25
ACML	17.8
SFSD	≤ 0.25
LRIY	≤ 0.25
REQM	≤ 0.25
HHMP	≤ 0.25
NMWA	≤ 0.25
GLVQ	≤ 0.25
ACHI	≤ 0.25
IMDK	≤ 0.25
